Test system: thioredoxin/thioredoxin reductase

Q: With `O=S(=O)([O-])CCSSCCS(=O)(=O)[O-].[Na+].[Na+]` [BNP7787, disodium 2,2′-dithio-bis-ethane sulfonate] as the compound, how does the “effect on TX/TXR catalyzed reduction of the insulin A-B chain disulfide bond (in words)” value read?
A: inhibits

From US20160287540A1, “Increasing Cancer Patient Survival Time by Administration of Dithio-Containing Compounds” (BioNumerik Pharmaceuticals, Inc., priority 2015, published 2016)
